About 4,000 (1%) of roughly 390,000 compounds were called active. Inconclusive means that the source gave no clear call. Such entries were picked first, then a sample of the others. Calls come from the whole dose curve; as a rule, active = well fitted inhibition curve with a large enough effect; inconclusive = small, poorly fitted or top-dose-only effect; inactive = no such curve, though single readings can be large or run the other way. A potency beside an inconclusive call is a rough fit, not a confirmed value.
These compounds were tested against Thioredoxin reductase 1, cytoplasmic (Rattus norvegicus) (UniProt O89049) (assay: qHTS Assay for Inhibitors of Mammalian Selenoprotein Thioredoxin Reductase 1 (TrxR1): qHTS). Details: recombinant rTrxR1, NADPH fluorescence consumption, selenite substrate; series mostly up to 114 µM.
Sequence of UniProt O89049 (O89049 whole entry, looked up): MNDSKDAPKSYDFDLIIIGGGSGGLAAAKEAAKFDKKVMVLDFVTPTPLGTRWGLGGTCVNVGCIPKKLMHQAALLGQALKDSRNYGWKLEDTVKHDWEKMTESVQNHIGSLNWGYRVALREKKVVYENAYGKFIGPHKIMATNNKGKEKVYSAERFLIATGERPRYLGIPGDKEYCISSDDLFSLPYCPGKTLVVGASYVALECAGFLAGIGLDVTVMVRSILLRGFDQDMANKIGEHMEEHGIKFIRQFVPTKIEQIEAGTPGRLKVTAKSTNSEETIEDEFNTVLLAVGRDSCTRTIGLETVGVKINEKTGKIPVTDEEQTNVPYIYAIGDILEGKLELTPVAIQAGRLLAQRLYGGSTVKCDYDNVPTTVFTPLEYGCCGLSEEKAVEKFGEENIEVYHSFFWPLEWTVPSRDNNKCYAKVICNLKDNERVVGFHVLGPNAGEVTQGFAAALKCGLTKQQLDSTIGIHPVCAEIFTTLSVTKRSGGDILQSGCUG
Summary of the method: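 Rat TrxR1 (90 nM in the dispensed reagent) was pre-reduced with 400 uM NADPH for 5 min at room temperature, then incubated with compound for 15 min. After 400 uM selenite was added, NADPH fluorescence (Ex 340/Em 450 nm) was followed for 8 min.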
Note: nearly all actives have a fitted effect of over 65% in size.
Potency is the fitted concentration of half-maximal effect; tags give direction and shape of the fitted curve.

SMILES	Potency
CSc1nc(O)c(C(c2ccccc2)c2c(O)nc(SC)[nH]c2=O)c(=O)[nH]1	inconclusive: 11.2 µM [inhibitor, full curve]
O=C(C=Cc1ccccc1)c1cccs1	active: 70.8 µM
CCC(=O)N1c2ccc(S(=O)(=O)CCC(=O)NCCC3=CCCCC3)cc2CC1C (stereo unspecified)	inconclusive: 28.2 µM [inhibitor, single point]
Cc1cc(C)c(-c2csc(-c3cc4ccccc4oc3=O)n2)cc1C	inactive
COc1cccc(C2/C(=C(\O)c3ccc4c(c3)OCO4)C(=O)C(=O)N2CCN(C)C)c1OC (stereo unspecified)	inconclusive: 31.6 µM [inhibitor, single point]
COc1ccccc1C(=O)O/N=C(\N)c1ccccn1	inactive
N#CC1=C(N)n2c(s/c(=C\c3ccco3)c2=O)=C(C#N)C1c1ccco1 (stereo unspecified)	inconclusive: 20 µM [inhibitor, single point]
O=[N+]([O-])c1ccc(Cl)c(S(=O)(=O)Nc2ccc3cn[nH]c3c2)c1	inactive
Cc1ccc(NC2SC(=O)N(Cc3cccc(C(=O)O)c3)C2=O)cc1 (stereo unspecified)	inconclusive: 56.2 µM [inhibitor, partial curve, poor fit]
COc1ccccc1CNC(=O)CSc1nc2nc(C)c(Cc3ccccc3C)c(C)n2n1	inactive
O=C(NC(=S)Nc1ccccc1)c1ccc(Br)o1	inactive
Cc1c(Cl)c(=O)n2c(=O)c(Cl)c(C)n12	inconclusive: 89.1 µM [inhibitor, single point]
CCOc1ccc(NS(=O)(=O)c2ccc(C(=O)N3CCN(c4ncccn4)CC3)cc2)cc1	inactive
Cc1ccccc1OCC(=O)N/N=C/c1ccc([N+](=O)[O-])o1	inconclusive: 31.6 µM [inhibitor, partial curve]
CCOC(=O)c1c2c([nH]c(=S)c1C#N)CCCC2	inconclusive: 11.2 µM [inhibitor, partial curve, poor fit]
CC(=O)c1c(C)[nH]c(C(=O)CSc2nnc(-c3ccco3)n2Cc2ccccc2)c1C	inconclusive: 28.2 µM [inhibitor, single point]
COC(=O)C1=C(C)OC(N)=C(C#N)C1c1ccc(OC)c(OC)c1OC (stereo unspecified)	inconclusive: 39.8 µM [inhibitor, single point]
COc1ccc(-n2nc3c(c2NC(=O)c2ccc(Br)o2)CS(=O)(=O)C3)cc1	inconclusive: 79.4 µM [inhibitor, partial curve, poor fit]
CCCCOC(=O)CCc1c(C)[nH]c(=S)[nH]c1=O	inconclusive: 2.82 µM [inhibitor, full curve, poor fit]
COCCCN1C(=O)C(=O)/C(=C(/O)c2ccc(S(=O)(=O)N3CCOCC3)cc2)C1c1ccc(C)cc1 (stereo unspecified)	inconclusive: 70.8 µM [inhibitor, partial curve]
COc1ccc(S(=O)(=O)Cc2ccc(C(=O)NCc3ccccc3OC)o2)cc1	inconclusive: 56.2 µM [inhibitor, partial curve, poor fit]
O=C(NNC(=O)c1ccccc1[N+](=O)[O-])c1ccco1	inactive
O=C(O)c1ccccc1Nc1cccc(OCc2ccc3ccccc3n2)c1	inconclusive: 0.067 µM [inhibitor, full curve, poor fit]
CC(OC(=O)c1cc2sccc2n1C)C(=O)NC(C)(C)C (stereo unspecified)	inactive

SMILES	Potency
CCc1nc(SCc2ccc(F)cc2)n[nH]1	inactive
Cc1ccc(-c2cn3nc(N4CCCC(C(=O)NCc5ccc(F)cc5)C4)sc3n2)cc1 (stereo unspecified)	inactive
O=C1CC(N(O)C2CC(=O)N(Cc3ccccc3)C2=O)C(=O)N1Cc1ccccc1 (stereo unspecified)	inconclusive: 20 µM [inhibitor, partial curve, poor fit]
Cc1cc(O)c(C(c2ccccc2)N2CCN(c3ccc(F)cc3)CC2)c(=O)n1Cc1ccco1 (stereo unspecified)	active: 10 µM
Cc1ccc(-n2c(CCC(=O)O)ccc2-c2cccs2)cc1Cl	active: 50.1 µM
Cc1nc([N+](=O)[O-])c(Br)n1Cc1ccccc1	active: 15.8 µM
COc1ccc(C(=O)NCC2(c3ccccc3)CCOCC2)cc1[N+](=O)[O-]	inactive
Cn1nnc(NC(=S)NC(=O)c2cccc3ccccc23)n1	inconclusive: 56.2 µM [inhibitor, partial curve]
COc1cccc(CNC(=O)c2ccc(-n3c(C)cc4c3CCCC4)cc2)c1	inconclusive: 70.8 µM [inhibitor, single point]
Cc1ccc(-c2csc3ncnc(Sc4nnc(CN5CCCCCC5=O)o4)c23)cc1	inconclusive: 70.8 µM [inhibitor, single point]
O=C(NC(=S)Nc1ccc(S(=O)(=O)Nc2nccs2)cc1)c1ccc(F)cc1	active: 22.4 µM
C/C(CC(=O)NC12CC3CC(CC(C3)C1)C2)=N\NC(=O)c1cnccn1	inconclusive: 31.6 µM [inhibitor, single point]
Nc1ccc2nc3c(=O)n(C4CCCCC4)c(=O)[nH]c3nc2c1	inactive
C#CCOCCOCCOCCNc1nc(N2CCOCC2)nc(N2CCN(C(=O)[C@H](CCC(=O)O)n3cc([C@@H](N)CCCCN)nn3)CC2)n1	inconclusive: 79.4 µM [inhibitor, single point]
Cn1nnnc1SCC1=C(C(=O)O)N2C(=O)C(NC(=O)C3CC3c3ccccc3)C2SC1 (stereo unspecified)	inconclusive: 35.5 µM [inhibitor, partial curve, poor fit]
O=C1C(=C2CCCCC2)SC(=S)N1Cc1ccco1	inconclusive: 3.55 µM [inhibitor, partial curve, poor fit]
O=C(Nc1nc2ccccc2n1CCOc1ccccc1)c1ccco1	inactive
COc1ccc(OC)c(C=Nc2ccccc2-c2nc3ccccc3[nH]2)c1	inconclusive: 39.8 µM [inhibitor, single point]
Cc1ccc(NC(=O)c2cc(S(=O)(=O)c3ccccc3)ccc2Cl)cc1	inconclusive: 100 µM [inhibitor, single point]
C=Cc1ccc(Cn2c(C(=O)O)c(CNCCc3ccco3)c3ccc(C)cc32)cc1	inconclusive: 28.2 µM [inhibitor, partial curve]
CCOc1cc(C2NC(=S)NC(C)=C2C(=O)Nc2ccc(OC)cc2)ccc1O (stereo unspecified)	inconclusive: 11.2 µM [inhibitor, partial curve, poor fit]
O=c1c2ccccc2sc2nc(CCl)nn12	inconclusive: 79.4 µM [inhibitor, single point]
COc1cccc(/C=N/n2c(-c3cc(C)[nH]n3)n[nH]c2=S)c1O	inactive
COc1ccccc1C=C1SC(=S)NC1=O	inconclusive: 50.1 µM [inhibitor, partial curve, poor fit]

SMILES	Potency
Cc1ccc(C)c(S(=O)(=O)Nc2ccc(O)c(Sc3ncn[nH]3)c2)c1	inconclusive: 14.1 µM [inhibitor, full curve]
COc1ccc(S(=O)(=O)NCCSC(C)(C)C)c(Cl)c1Cl	inactive
CSc1ccccc1NC(=S)Nc1cccc(C(F)(F)F)c1	inconclusive: 20 µM [inhibitor, single point]
COc1ccc(OC)c(C2C(C(=O)c3ccc(C)o3)=C(O)C(=O)N2CCN2CCOCC2)c1 (stereo unspecified)	inconclusive: 50.1 µM [inhibitor, partial curve]
COc1ccc2[nH]c(=O)c(CNc3ccccc3C)cc2c1	inconclusive: 12.6 µM [inhibitor, full curve]
CCN(CC)C(=O)Cn1nnc(-c2ccc(C)o2)n1	inconclusive: 70.8 µM [inhibitor, single point]
CN1Cc2sccc2C(c2ccc(O)c(O)c2)C1 (stereo unspecified)	inconclusive: 16.8 µM [inhibitor, partial curve]
CCCN1C(=O)c2[nH]nc(-c3cc(Cl)c(C)cc3O)c2C1c1ccc(O)c(OC)c1 (stereo unspecified)	inactive
Nc1ccc2sc(N)nc2c1	inactive
COc1cccc(/C=C/C(=O)OCC(=O)Nc2ccc(S(=O)(=O)N3CCCC3)cc2)c1	inactive
COc1cccc(NC(=S)NNC(=O)C(C)n2nc(C)c([N+](=O)[O-])c2C)c1 (stereo unspecified)	inconclusive: 8.91 µM [inhibitor, partial curve]
CCC(Sc1nc2ccsc2c(=O)n1-c1ccc(Cl)c(C)c1)C(=O)NCc1ccco1 (stereo unspecified)	inconclusive: 15.8 µM [inhibitor, full curve, poor fit]
S=c1[nH]nc(Cn2cnc3ccccc32)n1-c1ccccc1Cl	inactive
O=C(CSc1nnc(SCc2ccccc2)s1)N/N=C/c1c[nH]c2ccccc12	inactive
CC(=O)OCCN(C)c1cc(SC(C)C)c2nonc2c1[N+](=O)[O-]	active: 3.16 µM
O=C(/C(=N\Nc1ccccc1)Sc1nnnn1-c1ccccc1)c1ccccc1	inconclusive: 70.8 µM [inhibitor, partial curve]
Cc1ccccc1-c1nc2c(=O)n(C)c(=O)nc-2n(C)n1	active: 14.1 µM
Cc1c(NC(=O)Nc2c(Cl)cccc2Cl)c(=O)n(-c2ccccc2)n1C	inactive
Cc1ccc(/C=C/C(=O)N2CC(=O)Nc3ccccc32)o1	active: 79.4 µM
O=S(=O)(NCCNC/C=C/c1ccc(Br)cc1)c1cccc2cnccc12	inconclusive: 0.947 µM [inhibitor, full curve, poor fit]
CCOc1ccc(C(=O)CN2CCN(S(=O)(=O)c3ccc(Br)cc3)CC2)cc1	inconclusive: 56.2 µM [inhibitor, single point]
Cc1ccc(NCCC(=O)c2cccc([N+](=O)[O-])c2)c(C)c1	active: 3.16 µM
FC(F)(F)c1cc(-c2ccco2)nc(NCc2ccc(Cl)cc2)n1	inconclusive: 25.1 µM [inhibitor, single point]
